Experimental data reported in paper PMC4336329 (PLoS ONE, 2015).
Among all 310,000 compounds or so, about 2,200 (0.71%) showed an effect of 50% or more. Effects have a minus sign here. This is one part of the list.

target: human ether-à-go-go-related gene (hERG) potassium channel (human, UniProt Q12809); assay: primary screen, population patch clamp on CHO cells stably expressing hERG
Sequence (Q12809 whole entry, looked up): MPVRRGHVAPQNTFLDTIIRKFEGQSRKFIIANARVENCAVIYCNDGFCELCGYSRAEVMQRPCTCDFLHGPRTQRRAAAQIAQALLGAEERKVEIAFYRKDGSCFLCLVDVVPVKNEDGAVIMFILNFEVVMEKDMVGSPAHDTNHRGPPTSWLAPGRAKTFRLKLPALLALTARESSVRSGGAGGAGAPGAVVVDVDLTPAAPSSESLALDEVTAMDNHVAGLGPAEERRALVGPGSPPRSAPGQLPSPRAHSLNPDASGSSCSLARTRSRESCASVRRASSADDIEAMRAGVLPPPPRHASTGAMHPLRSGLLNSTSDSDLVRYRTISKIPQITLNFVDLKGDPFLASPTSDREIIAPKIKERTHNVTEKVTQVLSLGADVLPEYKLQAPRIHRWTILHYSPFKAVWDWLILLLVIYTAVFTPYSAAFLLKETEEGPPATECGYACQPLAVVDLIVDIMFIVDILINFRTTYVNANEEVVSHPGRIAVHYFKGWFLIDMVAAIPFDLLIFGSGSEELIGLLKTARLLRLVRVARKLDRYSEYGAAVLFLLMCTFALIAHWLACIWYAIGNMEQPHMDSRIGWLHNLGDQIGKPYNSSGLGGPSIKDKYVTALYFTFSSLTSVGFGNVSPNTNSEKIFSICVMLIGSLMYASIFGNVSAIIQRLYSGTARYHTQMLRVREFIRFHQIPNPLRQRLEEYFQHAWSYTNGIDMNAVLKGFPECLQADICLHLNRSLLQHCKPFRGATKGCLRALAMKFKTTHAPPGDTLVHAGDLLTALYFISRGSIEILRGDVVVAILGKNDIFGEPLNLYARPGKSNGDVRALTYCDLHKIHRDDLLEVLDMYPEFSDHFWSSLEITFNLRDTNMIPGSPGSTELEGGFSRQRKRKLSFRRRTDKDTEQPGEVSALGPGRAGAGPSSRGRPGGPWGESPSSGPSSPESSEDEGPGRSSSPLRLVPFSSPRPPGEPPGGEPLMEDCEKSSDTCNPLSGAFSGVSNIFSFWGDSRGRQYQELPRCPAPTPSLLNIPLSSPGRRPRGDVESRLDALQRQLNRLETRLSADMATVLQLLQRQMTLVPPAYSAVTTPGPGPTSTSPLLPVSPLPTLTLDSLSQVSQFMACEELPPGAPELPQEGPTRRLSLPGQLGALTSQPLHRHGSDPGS

Compound | hERG current change (%, negative = inhibition) at 1uM
CC(=O)NC1=NN(C(C)=O)C2(S1)C(=O)N(C(C)=O)c1ccc(C)cc12 (stereo not shown) | 8.34%
O=C(c1ccco1)N1CCN(C(=O)c2cccc3c2C(=O)N(Cc2cccnc2)C3)CC1 | 20.2%
COc1ccc(C2=NNC(c3cccnc3)=Nc3ccc(OC)cc32)cc1 | 6.5%
OCCNCCCCOc1ccc(F)cc1 | 9.34%
COc1ccc(/C=C2\SC(N)=NC2=O)cc1Br | 14.4%
CCOC(=O)c1ccc(NC(=O)c2c(N)n(C)c(=O)n(C)c2=O)cc1 | 9.49%
Cc1ccc(N=C2NC(=O)/C(=C/C=C/c3ccco3)S2)cc1C | 18.9%
Cc1ccc(Nc2nc(N)nc(CN3CCN(c4ccccc4F)CC3)n2)cc1 | -27.2%
Cn1cccc1-c1cc(C(=O)N/N=C/C=C/c2ccccc2)[nH]n1 | -2.16%
C=CCc1c(C)nc2c(C(=O)O)cnn2c1C | 8.08%
CCCc1nnc(NS(=O)(=O)c2ccc(OC)cc2)s1 | 16.5%
CCOC(=O)c1ccc(Nc2cc(C)nc3ncnn23)cc1 | -3.47%
CCN(C(=S)NC(=O)CCc1ccccc1)c1ccccc1 | -1.18%
Cc1cccc(Cn2c(N3CCN(C)CC3)nc3c2c(=O)n(C)c(=O)n3C)c1 | -9.31%
C=C1C(C(=O)Nc2ccc(F)cc2)C1C(=O)Nc1ccc(F)cc1 (stereo not shown) | 19.8%
CC(=O)c1cccc(NC(=S)N2c3ccccc3CC2C)c1 (stereo not shown) | 6.39%
O=C(CSc1ccc(-c2nc3ccccc3[nH]2)cn1)Nc1ccc2c(c1)OCCO2 | 13.3%
O=C(Cc1ccc(Br)cc1)N/N=C/c1ccc(-c2cccc(C(=O)O)c2)o1 | 10.3%
CCCCN1C(Nc2ccccc2)=NC[C@@H]1CC(C)C | -4.5%
O=c1[nH]c2ccccc2nc1/C=C(\O)C(F)F | 17.6%
O=C1NCC2=C1C(c1ccc(Br)cc1)Nc1ccccc1N2 (stereo not shown) | -13.2%
CC1CCC(NC(=O)COC(=O)c2ccc3ncsc3c2)CC1 (stereo not shown) | 12.9%
C/C=C1/CN2[C@@H]3C4CO[C@@H]3c3c([nH]c5cc(OC)ccc35)[C@@H]2CC14 (stereo partly shown) | 7.54%
Cc1cc(=O)oc2cc(OC(=O)CCN3C(=O)c4ccccc4C3=O)ccc12 | 7.83%
O=C(CNC1CC1)Nc1cc(C(F)(F)F)ccc1Cl.O=C(O)C(=O)O | 12.9%
